Data as given in PubChem BioAssay AID1794842 (National Center for Advancing Translational Sciences (NCATS), 2023).
Out of some 2,800 compounds screened, fewer than 10 were called active. Calls come from the whole dose curve; as a rule, active = well fitted curve in the direction sought with a large enough effect; inconclusive = small, poorly fitted or top-dose-only effect, or another doubt; inactive = no such curve, though single readings can be large or run the other way. This is one part of the list.

target: Metallo-beta-lactamase type 2 (Klebsiella pneumoniae) (UniProt C7C422); test: qHTS to identify inhibitors of the New Delhi Metallo-beta-lactamase (NDM): Meropenem screen against the machine-based learning selections.; note: % of control where 0% means no effect; conditions: Purified NDM-1, meropenem hydrolysis, absorbance 300 nm; at 38.4 µM (top of the series) unless noted
Chain of UniProt C7C422 (C7C422 whole entry, looked up): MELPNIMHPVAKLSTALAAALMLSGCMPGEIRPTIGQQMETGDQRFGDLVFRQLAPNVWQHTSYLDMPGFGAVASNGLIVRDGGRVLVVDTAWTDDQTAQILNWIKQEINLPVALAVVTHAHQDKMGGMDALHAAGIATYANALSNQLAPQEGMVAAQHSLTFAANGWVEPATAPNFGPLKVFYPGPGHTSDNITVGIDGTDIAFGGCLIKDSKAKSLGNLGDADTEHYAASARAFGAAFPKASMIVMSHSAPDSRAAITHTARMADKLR
Procedure, shortened: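 Hydrolysis by 2 nM NDM-1 was followed by absorbance after >30 min compound preincubation in HEPES pH 7.0 buffer with 1 uM Zn2SO4. For nitrocefin (16.7 uM, 15 min, 485 nm) and meropenem (50 uM, 30 min, 300 nm), each substrate ran on separate plates.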

Activity change, negative = inhibition, inactive:
COC(=O)C1CCN(CC(O)COc2cccc(CN3CC=C(C)CC3)c2)CC1 (configuration not stated) -0.28%
Cc1nnc2n1C(C)CN(C(=O)CCc1nc(-c3ccncc3)no1)C2 (configuration not stated) 0.268%
N#Cc1cccc(CN2CC[C@H](c3nc4ccccc4[nH]3)C2)c1 0.152% [at 57.5 µM]
CN(Cc1ccsc1)C(=O)c1ccc(C#CC(C)(C)O)o1 8.92%
COc1ccc(OC)c(CNC(=O)CC2CCOCC2)c1 -0.451%
Cc1noc2nc3c(c(C(=O)N[C@H]4CC[C@H]4NC4CCCC4)c12)CCC3 2.19%
O=C(N[C@@H]1CCOC[C@H]1OCCO)c1cc(-c2ccsc2)n[nH]1 -0.347%
Cn1ccnc1-c1ccc(N2CC[C@](C)(O)[C@@H](O)C2)nn1 11.3%
CC(C)(C)c1ccc(-c2cc(C[C@H]3CNCC[C@H]3CC(=O)NCc3cccs3)no2)cc1 -3.86%
Fc1ccc(-c2nnc3ccc(NCCc4ccccc4)nn23)nc1 13.9% [at 57.5 µM]
COc1ccccc1-c1nnc([C@H]2CCN(C3CCN(C)CC3)C2)o1 3.08% [at 57.5 µM]
Cc1ccsc1CN1CC(Oc2ccccc2C(=O)NC2CC2)C1 -4.05%
O=C(O)C1CNCCN(Cc2ccc(-c3nn[nH]n3)cc2)C1 (configuration not stated) 49.7%
COc1ccc(NC(=O)N2CCc3c(nc4cc(-c5ccccc5)[nH]n4c3=O)C2)c(OC)c1 8.8%
CN(Cc1ccc(F)cc1)C(=O)C1CCCC1 -0.602% [at 57.5 µM]
COc1ccccc1C(O)c1nc(Nc2cccc(F)c2)n[nH]1 (configuration not stated) -0.846% [at 57.5 µM]
COCCOCC1(CNC(=O)Nc2cccnc2)C[C@@H](O)[C@@H](O)C1 (some centres not stated) 50.4% [at 57.5 µM]
COc1ccc(-c2ccnc(N[C@H]3CO[C@H]4[C@@H]3OC[C@@H]4NS(=O)(=O)c3ccc(C)cc3)n2)cc1 2.73%
CCNC(=O)N1C[C@@H]2OCC(=O)N(C(C)C)[C@@H]2C1 -0.071% [at 76.7 µM]
CC1(COc2cccnc2)COc2ccc(C(=O)NC3CCC(O)CC3)cc2N1 (configuration not stated) 5.98% [at 57.5 µM]
Oc1ccccc1-c1cc(-c2cccnc2)c2cncn2c1 24.9% [at 76.7 µM]
CCOc1ccccc1NC(=O)Cn1ccn2nc(-c3ccccc3)c(CO)c2c1=O 0.561%
COc1ccc(C(=O)N[C@H]2C[C@H]3C(=O)Nc4cc(Cl)ccc4C(=O)N3C2)cc1 -1.35% [at 57.5 µM]
NS(=O)(=O)c1ccc(-n2nc(C3CCOC3)nc2C2CCC2)cc1 (configuration not stated) -2.61%
CC1(C)CN(C(=O)c2ccccc2Oc2ccccc2)CC1(C)O (configuration not stated) -0.132%
O=C(O)c1cc(-c2cn[nH]c2)cc(S(=O)(=O)N2CCSCC2)c1 1.21%
Cc1ccc(CN2CC[C@H](c3nnc(-c4ccco4)o3)C2)o1 -1.92% [at 57.5 µM]
CNC(=O)c1cccc(-c2cnc(Nc3ccncc3)c3c2CCO3)c1 -0.986% [at 57.5 µM]
O=C(c1ccccc1Cl)N1CCCC(c2nn(-c3ccccc3)c(=O)[nH]2)C1 (configuration not stated) 3.06%
CC1=C[C@@H](CNC(=O)Nc2ccc(Cl)cc2)[C@H](C(C)C)C[C@H]1CC(=O)N(C)Cc1cccnc1 0.724%
O=C(c1cccs1)C1CCCN(C(=O)c2ccc3nccn3c2)C1 (configuration not stated) 0.353%
CCN(CC)Cc1cnc2c(C(=O)NCCc3c[nH]c4ccccc34)cnn2c1 -0.28%
Cc1ccc(NC(=O)c2ccccc2)c(NC(=O)C2CCN(CC(N)=O)CC2)c1 -1.35%
OC[C@H]1CCN(c2ccnc3c(C(F)(F)F)cccc23)C[C@H]1O 1.06%
CC(=O)N1CCN(c2cc(-c3noc([C@@H]4CCCN4Cc4ccc(N(C)C)cc4)n3)ccn2)CC1 0.877%
NC(=O)[C@@H](Cc1c[nH]c2ccccc12)NC(=O)[C@@H]1[C@@H](NC(=O)NC2CCCCC2)CCN1C(=O)c1cnccn1 2.48%
COc1ccc(CNC(=O)C[C@@H]2C[C@H]3O[C@H](CNC(=O)NCc4ccccc4)[C@@H](O)[C@H]3O2)cc1 -0.708%
O=C(NC[C@H]1O[C@@H]2C[C@@H](CC(=O)N3CCC(F)(F)C3)O[C@@H]2[C@@H]1O)Nc1cccc(Cl)c1 0.968%
COc1ccccc1N1CCN([C@@H]2[C@H](O)[C@H](CO)O[C@@H]2CN(Cc2ccc(F)cc2)Cc2ccc(F)cc2)CC1 58.5%
Oc1cccc(Nc2cnc3ccc(-c4ccc(F)cc4)nn23)c1 11.4% [at 57.5 µM]
O=c1c2nc(Nc3ccc(C(F)(F)F)cc3)ccc2ncn1Cc1ccccn1 5.89% [at 57.5 µM]
CCN(CC)C(=O)C(C)[C@@H]1CC[C@@]2(C)Cc3sc(NC(=O)C4CC4)nc3[C@@H](C)[C@@H]2[C@H]1O (some centres not stated) -2.96%
NC(=O)c1cccc(-c2cc3c(cn2)CN(Cc2ccncc2)CCN3)c1 0.513% [at 57.5 µM]
COc1ccccc1-c1ccnc(N[C@H]2CO[C@H]3[C@@H]2OC[C@@H]3NC(=O)Nc2cccc(C(F)(F)F)c2)n1 0.821%
CC(=O)c1[nH]c(C)c(C(=O)N2CCCC(O)(CNC(=O)N(C)C)CC2)c1C (configuration not stated) 8.7%
Oc1ccccc1CN1CC(CNc2cccnc2)C2(C1)CN(c1ccccc1)C2 (configuration not stated) 1.58% [at 57.5 µM]
COc1ccc(CN2C[C@H](O)C[C@H]2c2nc(CS(=O)(=O)c3ccc(F)cc3)no2)cc1 -2.39%
O=C(N[C@@H]1CCN(C(=O)c2ccc3cc[nH]c3c2)C[C@H]1O)c1cnccn1 2.75%
NC(=O)C1CCN(CC[C@H]2CN(C(=O)Nc3ccc(OC(F)(F)F)cc3)CC[C@H]2CC(=O)O)CC1 5.2%
COCCNC(=O)[C@@H]1CCC[C@@H](NC(=O)c2ccc(Cl)cc2)CN(C)C(=O)C1 0.782% [at 57.5 µM]
Cc1ccc(F)cc1S(=O)(=O)N1CCn2c(n[nH]c2=O)C1 -0.877%
O=C(O)CN1CCNc2nc(CNc3ccc(F)cc3)n(Cc3ccccc3)c2C1=O 12.3% [at 57.5 µM]
CNC(=O)[C@@H](c1ccccc1OC)N1CCC[C@H]1C(=O)N1CC[C@@H](O)C1 55.7% [at 57.5 µM]
Cc1cccc(-c2cnc3n[nH]c(-c4ccccc4)c3n2)c1 -0.0468% [at 76.7 µM]
O=C(c1cccnc1)N1CC[C@H]2COC(=O)N2c2cc(F)ccc2C1 1.34% [at 57.5 µM]
Cc1ccc(S(=O)(=O)NC[C@H]2O[C@H](Cc3cc(-c4cccc(O)c4)on3)CC[C@@H]2O)cc1 -3.19%
CCCNC(=O)N[C@@H]1C[C@H](Cn2cc(C3CC3)nn2)[C@@H](O)[C@H]1O 42.3% [at 57.5 µM]
Cc1ccccc1-c1cnc2[nH]cc(CC(=O)NCc3ccccc3)c2c1 -0.253% [at 57.5 µM]
CCO[C@H]1CN(C(=O)Cc2ccc3nc(C)[nH]c3c2)C[C@@H]1O 2.16%
Cc1noc(C)c1[S+](=O)([O-])N1CCC2(C1)N=C(c1cccnc1)C(=O)N2 (configuration not stated) 2.73%
Fc1ccc2nc([C@H]3CCN(C4CCC4)C3)[nH]c2c1 1.46% [at 76.7 µM]
Fc1ccccc1CN1CCNc2cc(Nc3cccnc3)ncc2C1 6.19% [at 57.5 µM]
Nc1nc(C2CC(O)C2)cc(N2CCCN(Cc3ccccn3)CC2)n1 (configuration not stated) 2.71%
O=c1[nH]c(-c2ccc(F)cc2)nc2c1CCN(S(=O)(=O)c1cccs1)C2 1.01%
Cc1noc2c(-c3cccc(O)c3)cc(-c3cccs3)nc12 1.79% [at 57.5 µM]
CNC(=O)C1CCCN(Cc2nc(-c3cccc(Oc4ccccc4)c3)oc2C)C1 (configuration not stated) 3.84%
COCc1ccc(CN[C@H]2C[C@@H](Cc3cc(CN4CCCCC4)on3)C2(C)C)o1 -1.59% [at 57.5 µM]
COc1ccc2nc3n(c2c1)[C@@H](CNC(=O)c1ccc(F)cc1)COC3 -0.619% [at 57.5 µM]
Fc1ccc(CNc2cc3c(cn2)NCCN(Cc2ccccc2)C3)cc1 -1.35% [at 57.5 µM]
O=C(NCC1(COc2cccnc2)C[C@@H](O)[C@@H](O)C1)Nc1cccnc1 (some centres not stated) 21.8% [at 57.5 µM]
COc1ccc(NC(=O)C2(C)CCCc3cnc(Nc4cccnc4)nc32)cc1 (configuration not stated) 19.6% [at 57.5 µM]
C[C@@H]1CN(C(=O)CCN(C)S(C)(=O)=O)C[C@@]1(O)C1CC1 0.0588%
CC1(C)[C@H](Cc2cc(CCO)on2)C[C@@H]1N(S(C)(=O)=O)S(C)(=O)=O 13.4% [at 57.5 µM]
CCOC(=O)CCNC(=O)N1CCC(Oc2ncccc2C(=O)N2CCCCC2)C1 (configuration not stated) 2.32%
NCCC[C@@H](N)C(=O)N1CCCC(c2ccccc2)(c2ccccc2)C1 14.8%
O=C(NCc1cc2n(n1)CCNC2)c1ccc2c(c1)ncn2CCO 46.8%
NS(=O)(=O)c1ccc(CNc2nccc(-c3cccnc3)n2)cc1 0.369%
